Data published in patent US20260092093A1 (TJ BIOPHARMA SHANGHAI, published 2026).

B1: M12-SSS-Fc_N297A (Fc fusion)
chain: YFPKLKSKLSVIRNLNDQVLFIDQGNRPLFEDMTDSDSRDNAPRTIFIISMYKGSGARGMAVTISVKSEKISTLSSENKIISFKEMNPPDTIKDTKSDIIFFQRSVPGHDNKMQFESSSYEGYFLACEKERDLFKLILKKEDELGDRSIMFTVQNED[letters of human IgG1 Fc with changes not shown]
B2: M12-DB6-Fc_N297A (Fc fusion)
chain: YFPKLKSKLSVIRNLNDQVLFIDQGNRPLFEDMTDSDIRDNAPRTIFIISMYKGSGARGMAVTISVKSEKISTLSCENKIISFKEMNPPDTIKDTKSDIIFFQRSVPGHDNKMQFECSSYEGYFLACEKERDLFKLILKKEDELGDRSIMFTVQNED[letters of human IgG1 Fc with changes not shown]
B3: M12-DB7-Fc_N297A (Fc fusion)
chain: YFPKLKSKLSVIRNLNDQVLFIDQGNRPLFEDMTDSDVRDNAPRTIFIISMYKGSGARGMAVTISVKIEKISTLSCENKIISFKEMNPPDTIKDTKSDIIFFQRSVPGHDNKMQFECSSYEGYFLAAEKERDLFKLILKKEDELGDRSIMFTVQNED[letters of human IgG1 Fc with changes not shown]
B4: M12-DB9-Fc_N297A (Fc fusion)
chain: YFPKLKSKLSVIRNLNDQVLFIDQGNRPLFEDMTDSDIRDNAPRTIFIISMYKGSGARGMAVTISVKIEKISTLSVENKIISFKEMNPPDTIKDTKSDIIFFQRSVPGHDNKMQFESSSYEGYFLAIEKERDLFKLILKKEDELGDRSIMFTVQNED[letters of human IgG1 Fc with changes not shown]
B5: M12-DB10-Fc_N297A (Fc fusion)
chain: YFPKLKSKLSVIRNLNDQVLFIDQGNRPLFEDMTDSDIRDNAPRTIFIISMYKGSGARGMAVTISVKLEKISTLSYENKIISFKEMNPPDTIKDTKSDIIFFQRSVPGHDNKMQFESSSYEGYFLACEKERDLFKLILKKEDELGDRSIMFTVQNED[letters of human IgG1 Fc with changes not shown]
B6: WT IL18-DB6-Fc_N297A (Fc fusion)
chain: YFGKLESKLSVIRNLNDQVLFIDQGNRPLFEDMTDSDIRDNAPRTIFIISMYKDSQPRGMAVTISVKSEKISTLSCENKIISFKEMNPPDNIKDTKSDIIFFQRSVPGHDNKMQFECSSYEGYFLACEKERDLFKLILKKEDELGDRSIMFTVQNED[letters of human IgG1 Fc with changes not shown]
B7: MM5-DB6-Fc_N297A (Fc fusion)
chain: YFGKLGSKLSVIRNLNDQVLFIDQGNRPLFEDMTDSDIRDNAPRTIFIISMYKLSTERGMAVTISVKSEKISTLSCENKIISFKEMNPPDGIKDTKSDIIFFQSSVPGHDNKMQFECSSYEGYFLACEKERDLFKLILKKEDELGDRSIMFTVQNED[letters of human IgG1 Fc with changes not shown]
B8: Fc_N297A-MM5-DB6 (Fc fusion)
chain: [letters of human IgG1 Fc with changes not shown]GGGGSGGGGSGSGGGYFGKLGSKLSVIRNLNDQVLFIDQGNRPLFEDMTDSDIRDNAPRTIFIISMYKLSTERGMAVTISVKSEKISTLSCENKIISFKEMNPPDGIKDTKSDIIFFQSSVPGHDNKMQFECSSYEGYFLACEKERDLFKLILKKEDELGDRSIMFTVQNED
B9: Fc_N297A-M12-DB6 (Fc fusion)
chain: [letters of human IgG1 Fc with changes not shown]GGGGSGGGGSGSGGGYFPKLKSKLSVIRNLNDQVLFIDQGNRPLFEDMTDSDIRDNAPRTIFIISMYKGSGARGMAVTISVKSEKISTLSCENKIISFKEMNPPDTIKDTKSDIIFFQRSVPGHDNKMQFECSSYEGYFLACEKERDLFKLILKKEDELGDRSIMFTVQNED
B10: MM5-SSS-Fc_N297A (Fc fusion)
chain: YFGKLGSKLSVIRNLNDQVLFIDQGNRPLFEDMTDSDSRDNAPRTIFIISMYKLSTERGMAVTISVKSEKISTLSSENKIISFKEMNPPDGIKDTKSDIIFFQSSVPGHDNKMQFESSSYEGYFLACEKERDLFKLILKKEDELGDRSIMFTVQNED[letters of human IgG1 Fc with changes not shown]

How the values were obtained:
Assay in all cases: cell-based or functional assay
[1] = molecular target: T1, hIL-18 receptor (hIL-18Rα and hIL-18Rβ) on NFκB-luc/hIL-18RαRβ HEK293 reporter cells (human, UniProt Q13478 19-541; O95256 20-599)
T1 sequence (looked up) 1: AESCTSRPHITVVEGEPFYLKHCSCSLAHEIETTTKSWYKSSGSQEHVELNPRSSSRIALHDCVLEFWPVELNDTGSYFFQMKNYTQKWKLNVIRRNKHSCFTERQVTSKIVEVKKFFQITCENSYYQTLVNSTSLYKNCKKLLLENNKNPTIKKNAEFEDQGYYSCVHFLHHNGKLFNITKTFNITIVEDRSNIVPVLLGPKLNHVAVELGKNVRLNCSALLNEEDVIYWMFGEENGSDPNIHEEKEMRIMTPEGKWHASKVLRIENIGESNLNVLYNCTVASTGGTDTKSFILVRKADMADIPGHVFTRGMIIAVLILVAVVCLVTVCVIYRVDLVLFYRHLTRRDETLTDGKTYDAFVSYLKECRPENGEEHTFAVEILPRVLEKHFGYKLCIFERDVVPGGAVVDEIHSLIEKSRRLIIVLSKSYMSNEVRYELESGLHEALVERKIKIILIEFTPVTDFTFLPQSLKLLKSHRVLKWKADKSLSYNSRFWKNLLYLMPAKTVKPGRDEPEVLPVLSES
T1 sequence (looked up) 2: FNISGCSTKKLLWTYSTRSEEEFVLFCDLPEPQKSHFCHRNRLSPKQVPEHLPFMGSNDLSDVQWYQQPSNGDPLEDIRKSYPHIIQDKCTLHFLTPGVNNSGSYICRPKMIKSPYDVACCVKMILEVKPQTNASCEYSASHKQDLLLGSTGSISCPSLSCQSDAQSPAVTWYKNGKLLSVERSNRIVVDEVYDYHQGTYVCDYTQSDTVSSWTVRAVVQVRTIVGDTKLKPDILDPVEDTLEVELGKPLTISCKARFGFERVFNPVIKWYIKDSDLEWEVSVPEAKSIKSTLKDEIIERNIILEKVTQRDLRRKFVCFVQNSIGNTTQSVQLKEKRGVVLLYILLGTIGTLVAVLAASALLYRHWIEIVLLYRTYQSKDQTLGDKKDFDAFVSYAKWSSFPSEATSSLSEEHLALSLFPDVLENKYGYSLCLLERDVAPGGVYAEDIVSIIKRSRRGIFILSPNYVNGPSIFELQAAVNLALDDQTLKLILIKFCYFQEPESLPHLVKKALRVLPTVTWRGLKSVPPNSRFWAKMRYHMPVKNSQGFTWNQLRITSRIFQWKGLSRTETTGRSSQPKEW

hIL-18BP-hFc [2] = molecular target: T2, hIL-18BP-hFc (human, UniProt O95998 31-194, limits assumed)
T2 sequence (looked up): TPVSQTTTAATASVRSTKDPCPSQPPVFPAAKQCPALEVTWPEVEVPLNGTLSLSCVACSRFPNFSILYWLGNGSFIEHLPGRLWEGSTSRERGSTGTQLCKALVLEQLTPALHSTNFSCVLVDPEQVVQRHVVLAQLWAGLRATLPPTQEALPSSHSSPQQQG

[3] = molecular target: T3, hIL-18 receptor (hIL-18Rα and hIL-18Rβ) (human, UniProt Q13478 19-541; O95256 20-599)
T3 sequence (looked up) 1: T1 sequence (looked up) 1
T3 sequence (looked up) 2: T1 sequence (looked up) 2

hIL-18BP-hFc [4] = molecular target: T2, hIL-18BP-hFc; remark: listed apart in the source
[5] = molecular target: T3, hIL-18 receptor (hIL-18Rα and hIL-18Rβ); remark: listed apart in the source

Row | Binder | EC50 (nM) + 1 µg/ml hIL-18BP-hFc, in vitro IL-18 Receptor Mediated Signaling Assay (hIL-18BP-hFc [2]) | EC50 (nM), in vitro IL-18 Receptor Mediated Signaling Assay [3] | EC50 (nM), in vitro IL-18 Receptor Mediated Signaling Assay [5] | also measured
1 | B1 | – | – | – | fold decrease in activation of IL-18 receptor-mediated signaling (NFκB luciferase reporter cells) [1]: ~7 fold
2 | B2 | 0.01 nM | 0.012 nM | – | –
3 | B3 | 0.007 nM | ~0.007 nM | – | –
4 | B4 | 0.025 nM | 0.017 nM | – | –
5 | B5 | – | 0.012 nM | – | –
6 | B6 | – | – | 0.011 nM | EC50 (nM) + 1 µg/ml IL-18 BP-hFc, in vitro IL-18 Receptor Mediated Signaling Assay (hIL-18BP-hFc [4]): 3.13 nM
7 | B7 | – | – | 0.13 nM | EC50 (nM) + 1 µg/ml IL-18 BP-hFc, in vitro IL-18 Receptor Mediated Signaling Assay (hIL-18BP-hFc [4]): 0.12 nM
8 | B8 | – | – | 0.25 nM | –
9 | B9 | – | – | 0.06 nM | –
10 | B10 | – | – | – | fold decrease in activation of IL-18 receptor-mediated signaling (NFκB luciferase reporter cells) [1]: ~220 fold

Read-outs that look alike come from different tables or passages of the source.
